In the supplement of paper PMC3334620:
Over roughly 33,000 sequences, “E-score (-0.5 to 0.5)” has its median near -0.032; the highest 2% begin near 0.36. The list shows a part of the results.

What follows are sequences tested against T1, Sko1 (UniProt Q02100) (assay: PBM E-score (8-mer binding enrichment) (E-score (-0.5 to 0.5)); higher = stronger / more preferred TF binding; most listed sequences are background and not binding sites). Conditions: protein concentration: 200 nM; construct: GST-full length.
T1 sequence: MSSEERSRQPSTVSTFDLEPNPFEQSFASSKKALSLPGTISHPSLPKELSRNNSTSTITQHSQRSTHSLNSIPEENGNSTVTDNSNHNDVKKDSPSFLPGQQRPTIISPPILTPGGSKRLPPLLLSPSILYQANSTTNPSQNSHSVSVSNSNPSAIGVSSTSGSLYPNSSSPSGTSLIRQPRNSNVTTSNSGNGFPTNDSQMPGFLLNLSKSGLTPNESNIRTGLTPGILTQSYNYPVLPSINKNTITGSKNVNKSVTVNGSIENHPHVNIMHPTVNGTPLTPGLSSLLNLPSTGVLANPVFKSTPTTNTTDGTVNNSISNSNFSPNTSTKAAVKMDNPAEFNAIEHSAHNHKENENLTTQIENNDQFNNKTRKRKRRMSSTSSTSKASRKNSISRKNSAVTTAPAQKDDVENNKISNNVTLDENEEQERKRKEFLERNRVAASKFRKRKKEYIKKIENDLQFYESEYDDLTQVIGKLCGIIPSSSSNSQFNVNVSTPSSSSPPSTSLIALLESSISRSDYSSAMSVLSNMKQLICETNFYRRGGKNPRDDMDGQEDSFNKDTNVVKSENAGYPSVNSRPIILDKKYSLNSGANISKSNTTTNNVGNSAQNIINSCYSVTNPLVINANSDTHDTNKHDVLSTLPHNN
In short: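 E-scores (a modified Wilcoxon-Mann-Whitney statistic) were assigned by the Universal PBM Analysis Suite to every ungapped eight-base word pooled with its reverse complement. The input came from universal all-10-mer Agilent arrays made double-stranded by primer extension and probed with GST-tagged yeast transcription factors at about 100-200 nM. Fluorescent anti-GST detected bound protein, and masliner normalised the scans.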

In order of falling “PBM E-score” value:
1. TGATGACA  0.326
2. GGCGTCAC  0.274
3. CGAATTAC  0.266
4. GACATATC  0.263
5. CTTGATAC  0.256
6. TAATCATA  0.243
7. GTAAACAC  0.233
8. AACGAAAC  0.23
9. AGGATTAC  0.21
10. GCAACTTA  0.192
11. GTAACCTA  0.192
12. ACGAGCTA  0.186
13. CAGAACAA  0.178
14. TATGAATA  0.175
15. AAACTTTG  0.141
16. GACCGTCA  0.14
17. TTAACAAA  0.14
18. TCGGAAAA  0.128
19. CGTGCACA  0.0919
20. TACTCATA  0.0882
21. ACAATACA  0.0868
22. AGTACCTA  0.0825
23. AGCCAACG  0.0817
24. TAATTTGA  0.0733
25. ATGTTAAG  0.0699
26. CGAGTTCC  0.0628
27. GTGCTAAA  0.0598
28. CACAAATA  0.0596
29. ACTTATGC  0.0593
30. ACGGGATA  0.0487
31. AGTTAACA  0.048
32. AACATCTC  0.0477
33. GACGCCGA  0.0474
34. CGATACAA  0.0458
35. GCGTCGCA  0.0455
36. CCTAAAAC  0.0414
37. ACCAATAC  0.0372
38. ATGCATTC  0.034
39. CCGCGCGG  0.0323
40. AGTTCGAC  0.0319
41. CTTCCACA  0.03
42. ATGCCACA  0.022
43. ATCGCCAC  0.0139
44. AATGACCA  0.0136
45. AACAGCAT  0.0101
46. AGTACTTA  0.00814
47. ATAAGGTC  0.00557
48. AGGGTGCG  0.00472
49. ACCACTAC  -0.00026
50. GCATGACC  -0.00129
51. GAGATATC  -0.0129
52. GAGCACTC  -0.0169
53. GCCATAAC  -0.0178
54. TACTTATA  -0.0231
55. AGCGAACT  -0.0233
56. CACTTTCA  -0.0374
57. AAAGATCT  -0.0411
58. GAAATCCC  -0.0633
59. CATAGCCG  -0.0709
60. CCACCAGC  -0.0759
61. CAAAACTC  -0.0997
62. CCATACCG  -0.102
63. TCCCGCGA  -0.104
64. CGCCGTAG  -0.104
65. AAGCGCAC  -0.136
66. CCTCGAGC  -0.138
67. GCTCCGCA  -0.139
68. AAGGCCAC  -0.154
69. CAGGCGCC  -0.169
70. AAACCTTT  -0.171
71. GGAGGTAC  -0.173
72. CCCCATTC  -0.205
73. GAAACTGC  -0.212
74. GGACACCA  -0.22
75. CCCTCGAA  -0.23
76. GCCCGCTA  -0.233
77. GGCGAACC  -0.25
78. GGTCTGGA  -0.25
79. CCCAGGAG  -0.267
80. AGAGAGCA  -0.283
81. AGGAGCGG  -0.3
82. CGGGTCCA  -0.314
83. GGGCCCTA  -0.315
84. CCAGGGCA  -0.325
85. ATAGGGCA  -0.34
86. GCCGGGAC  -0.368
